Measurements from PubChem BioAssay AID651820 (National Center for Advancing Translational Sciences (NCATS), 2012).
Out of some 340,000 compounds screened, about 12,000 (3.5%) were called active. The shares of active, inactive and inconclusive entries below differ from those in the screen. Calls follow the shape of the dose curve; as a rule, active = well fitted inhibition curve with a large enough effect; inconclusive = small, poorly fitted or top-dose-only effect, or another doubt; inactive = no such curve, though single readings can be large or run the other way. Potencies of inconclusive entries are left out as doubtful fits.

Assay: qHTS Assay for Inhibitors of Hepatitis C Virus (HCV)
Conditions: Huh7.5.1 HCVcc-Cre (HCVcc is cell-culture hepatitis C virus) infection, luciferase reporter, 44 h; activity change, negative = inhibition: at 41.8 µM (top of the series) unless noted
Method in brief: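 Reporter virus HCVcc-Cre (~0.5 moi) infects cells exposed to compound; seeding density 1,000 cells/well with 4 h settling beforehand. Luminescence, 15 sec read, taken 44 h post-infection following a 15 min RT substrate incubation.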
% is scaled to controls: 0 for no effect and ±100 for the full control effect; potency is read from the fitted curve at half-maximal effect; tags tell the direction and shape of the fitted curve.

| SMILES | activity change, negative = inhibition | Potency |
| --- | --- | --- |
| COc1ccc(COC(=O)c2cccc(S(=O)(=O)N3CCN(C(C)=O)CC3)c2)cc1F | inactive: -22.7% |  |
| Cc1sc2c(c1C)CN(CCN1CCOCC1)CN2C(=O)c1ccccc1 | inactive: -0.518% |  |
| Cc1cccc2c1N(CCOc1ccccc1)C(=O)C2=O |  | inconclusive [inhibitor, partial curve] |
| COc1ccc(OC)c(-n2c(SCC(=O)NCc3ccco3)nnc2-c2c[nH]c3ccccc23)c1 | inactive: -13.9% |  |
| OCCCNc1ncnc2oc(-c3ccccc3)c(-c3ccccc3)c12 |  | inconclusive [inhibitor, partial curve] |
| O=C(CN(c1cccc(C(F)(F)F)c1)S(=O)(=O)c1ccc(Cl)c([N+](=O)[O-])c1)NCc1ccc(F)cc1 |  | inconclusive [inhibitor, single point] |
| COC(=O)C1=C(c2ccccc2OCc2ccccc2)C[C@@H]2CC[C@H]1N2C(=O)NCCOc1ccc(OC)cc1 |  | inconclusive [inhibitor, single point] |
| Cc1ccc(S(=O)(=O)N2CCCCC2)cc1NC(=O)c1ccc2c(=O)n3c(nc2c1)CCCCC3 |  | active: 11.2 µM |
| COc1ccccc1NC(=O)c1ccc(NC(=O)CN2CCCCC2)cc1 |  | inconclusive [inhibitor, single point] |
| O=[N+]([O-])c1ccc(Cl)c(S(=O)(=O)n2ccnc2)c1 | inactive: 4.49% |  |
| COc1ccc(CN2CCNC(=O)C2CC(=O)N(C)CCC2CCOCC2)cc1OC (stereo unspecified) | inactive: 16% |  |
| O=C(NCCc1ccccc1)C1CCCN(S(=O)(=O)c2cccc3nonc23)C1 (stereo unspecified) | inactive: -4.03% |  |
| Cc1ccc(C)c(Oc2cc(F)nc(N)n2)c1 | inactive: -15.2% |  |
| COc1ccc(C(=O)c2c3ccc([N+](=O)[O-])cc3[n+]([O-])n2CCCC(N)=O)cc1 |  | inconclusive [inhibitor, partial curve] |
| Cc1cccc2nc(CSC(=N)N)c(Br)n12 |  | inconclusive [inhibitor, partial curve] |
| Cc1cccc2cc3c(nc12)SC(=NCC1CCCO1)N(Cc1ccco1)C3 (stereo unspecified) |  | inconclusive [inhibitor, single point] |
| Nc1c(S(=O)(=O)c2cccs2)c2nc3ccccc3nc2n1/N=C/c1cccc(O)c1 |  | active: 7.94 µM |
| COc1ccc(C(=O)/C=C/c2ccc(F)cc2)c(OC(=O)c2ccc([N+](=O)[O-])cc2)c1 |  | inconclusive [inhibitor, single point] |
| C/C(CCc1ccco1)=N/NC(=O)CCC(=O)Nc1cccc(Cl)c1 | inactive: 1.84% |  |
| Cc1ccc(CSCc2nnc(SCC(=O)N3CCN(c4ccccc4)CC3)n2C)cc1 |  | inconclusive [inhibitor, single point] |
| COc1ccc(N2CCN(C(=O)CSc3nnnn3-c3ccc4c(c3)OCCO4)CC2)cc1 |  | active: 7.94 µM |
| c1ccc(Cn2c(-c3ccccc3)c[n+]3c2SCCC3)cc1 |  | active: 2.51 µM |
| CCc1ncc(CN2CCCC(C(=O)Nc3cccc(-c4cccc(C)c4)c3)C2)cn1 (stereo unspecified) | inactive: -29.3% |  |
| Cc1nc(N2CCC(C)CC2)c2nnn(Cc3ccccc3)c2n1 |  | inconclusive [inhibitor, single point] |

| SMILES | activity change, negative = inhibition | Potency |
| --- | --- | --- |
| O=C(Cn1c(=O)c(C(F)(F)F)nc2ccccc21)N1CCC2(CC1)OCCO2 | inactive: 19.8% |  |
| CN(C)c1ccc(/C=N/NC(=O)CCCCCNC(=O)c2ccccc2)cc1 | inactive: 21.8% |  |
| N=c1nc(N2CCCCC2)cc(N)n1O |  | inconclusive [inhibitor, single point] |
| COc1ccc(CNC(=O)c2ccc(N3CCC4(CC3)CC(c3ccc(Cl)cc3)=NO4)c(NC(=O)c3ccccc3)c2)cc1 | inactive: -5.89% |  |
| CC1CCN(CC(=O)Nc2ccc(Cl)cc2[N+](=O)[O-])CC1 |  | inconclusive [inhibitor, single point] |
| CCN(C(=O)Cn1cnc2c1c(=O)n(C)c(=O)n2C)C1CCS(=O)(=O)C1 (stereo unspecified) | inactive: 5.42% |  |
| Cc1cccc(-c2nc(Nc3ccc(N4CCOCC4)cc3)c3ccccc3n2)c1 |  | inconclusive [inhibitor, partial curve] |
| CSc1ccc(CN2CCN(c3ccccc3C)CC2)cc1 |  | inconclusive [inhibitor, partial curve, poor fit] |
| Cc1ccc(NC(=O)CSC2=C(C#N)C(c3ccc4c(c3)OCO4)CC(=O)N2)cc1C (stereo unspecified) |  | inconclusive [inhibitor, partial curve] |
| O=C1NCCN(CC2CCN(CCc3ccc(Cl)c(Cl)c3)CC2)C1=O |  | inconclusive [inhibitor, single point] |
| O=C(O)CNc1nc(-c2ccccc2)c2cc([N+](=O)[O-])ccc2n1 |  | inconclusive [inhibitor, single point] |
| CCc1nc(Nc2ccc(O)cc2)c2oc3ccccc3c2n1 |  | inconclusive [inhibitor, single point] |
| O=C1C(=O)N(CCN2CCOCC2)C(c2ccc(F)cc2)/C1=C(/O)c1ccc(S(=O)(=O)N2CCOCC2)cc1 (stereo unspecified) |  | inconclusive [inhibitor, single point] |
| Cc1ccc(SCCNS(=O)(=O)c2ccc(F)cc2)cc1 |  | inconclusive [inhibitor, single point] |
| Cc1coc2cc3oc(=O)c(CCC(=O)NCc4ccccn4)c(C)c3cc12 |  | active: 1 µM |
| Cc1cc([N+](=O)[O-])ccc1NC(=S)NC(=O)C(c1ccccc1)c1ccccc1 |  | inconclusive [inhibitor, single point] |
| COC(=O)[C@@]12CCCCN1[C@H](c1ccc(SC3CCCCC3)cc1)[C@@H]1C(=O)N(C)C(=O)[C@@H]12 | inactive: 3.07% |  |
| CCn1c(Sc2ccc([N+](=O)[O-])cn2)nnc1-c1ccco1 |  | inconclusive [inhibitor, single point] |
| O=C(c1cccc(OC2CCN(Cc3cc(F)cc(F)c3)CC2)c1)N1CCCC1 |  | inconclusive [inhibitor, single point] |
| Cc1nnc2sc(SCC(=O)N3CCCCC3)nn2c1=O | inactive: 8.01% |  |
| C[C@H](CO)N1C[C@H](C)[C@@H](CN(C)C(=O)Nc2ccc(C(F)(F)F)cc2)Oc2c(NC(=O)CCC(F)(F)F)cccc2C1=O |  | inconclusive [inhibitor, single point] |
| CNC(=O)c1ccsc1NC(=O)c1sc2ccccc2c1Cl |  | active: 11.2 µM |
| Cc1c(CN2CCN(C)C(CCO)C2)[nH]c2c(Cl)cccc12 (stereo unspecified) |  | inconclusive [inhibitor, partial curve] |
| COc1ccc(C(C)NC(=O)Cc2ccc(Br)cc2)cc1 (stereo unspecified) |  | inconclusive [inhibitor, partial curve] |

| SMILES | activity change, negative = inhibition | Potency |
| --- | --- | --- |
| COCCn1c(C)cc(C(=O)CSc2nc(C)c(C)c(C)n2)c1C | inactive: -4.95% |  |
| O=C(Cc1c(F)cccc1Cl)OCN1C(=O)c2ccccc2C1=O | inactive: 17.3% |  |
| O=C1NC2(CCCCCC2)C(=O)N1Cc1ccccc1Cl | inactive: 13.8% |  |
| Cc1cccc(NC(=O)c2cc(NC(=O)C3CC=CCC3C(=O)O)ccc2N2CCOCC2)c1 (stereo unspecified) |  | inconclusive [inhibitor, single point] |
| O=C(Cc1cccs1)N1CCN(c2ccccn2)CC1 |  | inconclusive [inhibitor, single point] |
| O=C(NC12CC3CC(CC(C3)C1)C2)N1CCC(n2nnc3ccccc32)CC1 | inactive: 0.497% |  |
| COc1ccc(NC(=O)CN(C)C(=O)c2cccc(S(=O)(=O)N3CCCc4ccccc43)c2)cc1 |  | inconclusive [inhibitor, single point] |
| O=[N+]([O-])c1cc(S(=O)(=O)N2CCCCC2)ccc1NCCCN1CCOCC1 | inactive: 22.5% |  |
| Cn1c(=O)c2c(nc(/C=C/c3cccc(Cl)c3)n2C)n(C)c1=O | inactive: 0.0985% |  |
| COc1ccc(NC(=O)c2c(N)no[n+]2[O-])c(OC)c1 |  | inconclusive [inhibitor, single point] |
| Nc1cc(=O)[nH]c(SCc2nc3ccccc3n2Cc2ccccc2)n1 |  | inconclusive [inhibitor, single point] |
| Cc1ccc(-c2nnn(C(C)C(=O)N3c4ccccc4CCc4ccccc43)n2)cc1 (stereo unspecified) |  | inconclusive [inhibitor, single point] |
| COc1ccc(-c2[nH]ncc2/C=C(/C#N)C(=O)NC2CCCCC2)cc1 |  | active: 12.6 µM |
| Cc1cc(C(=O)CSc2nc3ccccc3n2CCC#N)c(C)n1Cc1cccs1 |  | inconclusive [inhibitor, single point] |
| O=C(NC(=S)Nc1cccc(F)c1)c1cccc([N+](=O)[O-])c1 | inactive: -21.1% |  |
| Cc1ccc(N=Nc2[nH]c3ccccc3c2O)cc1 | inactive: -6.09% |  |
| Cc1c(C)n(CCc2ccccc2)c2ncnc(NCCCN(C)C)c12 |  | inconclusive [inhibitor, single point] |
| C=CCn1c(O)c(C(C)=Nc2ccc3c(c2)CCC3)c(=O)[nH]c1=O | inactive: 12.7% |  |
| CC(C)c1cccc(C2=CC(=O)C[C@H](c3ccc4c(c3)OCO4)C2)c1 |  | inconclusive [inhibitor, single point] |
| C=CCN(c1ccccc1)S(=O)(=O)c1ccc2[nH]cc(C(=O)NCCOC)c(=O)c2c1 |  | inconclusive [inhibitor, partial curve] |
| Cc1ccc(CCC(=O)Nc2ncc(Cc3cccc(Cl)c3Cl)s2)o1 |  | inconclusive [inhibitor, full curve] |
| CCOC(=O)c1c(S(=O)(=O)Nc2ccc(CN3CCC(C)CC3)cc2)c(C)n(C)c1C |  | inconclusive [inhibitor, single point] |
| COc1ccc(C)cc1NC(=O)COC(=O)c1c(C)nn(-c2ccccc2)c1C |  | active: 12.6 µM |
